Measured values taken from the supplement of paper PMC11417369.
± gives the standard deviation of the averaged measurements. This is one part of the list.

system: PfAP2-EXP AP2 domain (GST-tagged); test: gcPBM binding intensity (ln(normalized median fluorescence intensity)); higher = stronger DNA binding
Outline: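 The binding buffer was 1× PBS containing 1% milk, 0.2 mg/ml BSA, 0.5% salmon testes DNA and 0.03% Triton X-100. In it, GST-tagged P. falciparum DNA-binding domains expressed in E. coli were applied for 1 h to an Agilent 4 × 180k array of primer-extended double-stranded 36-bp intergenic genomic probes plus negative controls. Binding intensity, read with Alexa488 anti-GST antibody and a 488 nm scan, is the highest Masliner-normalised natural-log median intensity across replicate spots of either probe orientation.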

Row | Sequence | gcPBM binding intensity (ln)
1 | TTGTGATTATATAATCGTACATAATTTTAATCACAC [XGTACX_site398] | 8.45 ± 0.29
2 | CAAAACAAAGTTGCCGCACACAGATACGCACCCAAG [CACACA_site3455] | 8.92 ± 0.52
3 | GAATATAAACATATTACACACATCTATATGTACTTT [CACACA_site8582] | 8.44 ± 0.36
4 | GTAATATTATAATATACACACATAGAATATAAATAT [CACACA_site6333] | 8.7 ± 0.42
5 | AAAATACACCAACACACACACATATATATATATATT [CACACA_site4149] | 8.6 ± 0.38
6 | TTCAAGATTTATTATACACACATATTAATATATATA [CACACA_site573] | 8.48 ± 0.42
7 | AGAATAAAAAGGAACACACACACACGCATATAAATA [CACACA_site7659] | 9.01 ± 0.55
8 | TTTTATGATAATTTTGCACACACTTAGGAAAAATTA [CACACA_site1556] | 8.52 ± 0.23
9 | TTTATTTAATTCATTGCATGTAATTTTTGTGTCCAC [TGCATGCA_site677] | 9.13 ± 0.099
10 | TTAAAAAAAAATGGCACACATTTTAATTTTATGTTT [CACACA_site5035] | 8 ± 0.35
11 | AAATTAAAATAATAATTCTACAAATTAATTTATCAT [XGTACX_negctrl_site44] | 7.97 ± 0.49
12 | TATCAAATGTATATATGTACTTATATTTTTTTTATA [XGTACX_site1501] | 8.39 ± 0.33
13 | AATATATTTTCCTGCAAACACACATATAAATGTGTA [CACACA_site532] | 8.51 ± 0.47
14 | TATATTACAAAAAGTACACACATAAATAAATACATA [CACACA_site975] | 8.85 ± 0.39
15 | ATGCTCAAAAGATATGCATGTACAAATATATGAAAT [TGCATGCA_site592] | 9.01 ± 0.45
16 | GATATAATGTGTTTGGTATTCTTGATAGATAGTTTT [CACACA_negctrl_site1711] | 8.6 ± 0.49
17 | ACATACATACACCCACGTACGTACCGAAACACCACC [XGTACX_site1212] | 9.11 ± 0.35
18 | ATGATGTCTTTATATTGTACATATATGAAGACGTTA [XGTACX_site7751] | 8.6 ± 0.35
19 | TTTAAATAAAATATTACACACTTAGAAAAATATATA [CACACA_site3663] | 8.38 ± 0.28
20 | TTTCTTTTTTTTTTTGTATATTAAATCTAAAAAGGA [TGCATGCA_negctrl_site431] | 8.18 ± 0.39
21 | ACTTCAAAAATAAACTGTACGTAAAAAAAAAAAAAA [XGTACX_site795] | 8.53 ± 0.56
22 | TTTCGTAAAATGAAATGTACTCAAAAGTAAATATAA [XGTACX_site214] | 8.4 ± 0.29
23 | AATAATCATAGTTCTACACACCTATATTGCAAAAAA [CACACA_site867] | 8.63 ± 0.43

Row | Sequence | gcPBM binding intensity (ln)
24 | TGAGAGAGAAACGTAGTGCATAAAATCAAATTTAGA [GTGCAC_site9737] | 9.04 ± 0.43
25 | GGTTCATATATTAACACACACATACATATTATATAT [CACACA_site2937] | 8.78 ± 0.39
26 | TAATATGTATTTACAAGTACTAACAAAATATTAAAA [XGTACX_site3379] | 8.35 ± 0.4
27 | TACAAAAATAAATGTTGTACTATTATTTATTTCGAT [XGTACX_site1048] | 8.39 ± 0.38
28 | TTATAAAAAATTTTAGTGCATATATGATTTATATAT [GTGCAC_site9831] | 8.47 ± 0.14
29 | TTCATTAAATAGAACAAAATAATAATATAACAACAA [GTGCAC_negctrl_site116] | 8.74 ± 0.39
30 | TTAAAGATATACAAAAGTACTTTTTTTTTCGTCATT [XGTACX_site384] | 8.32 ± 0.46
31 | CCATATCTTTTTTGCACACACTACAATAAAACAAAA [CACACA_site4995] | 9.035 ± 0.064
32 | TGATACTTATGATAAATACACACTTGAAATTAAGGA [CACACA_site1152] | 8.41 ± 0.5
33 | ATGATATACGTAAACACACAAATAAAAAAAATTTAT [CACACA_site7544] | 8.43 ± 0.56
34 | TATATAGCATATTTCACACACACATAATGAATATTA [CACACA_site3546] | 8.49 ± 0.33
35 | TTAAAAAGAAAGTTCACACACATATAGATGACGGAA [CACACA_site7268] | 8.83 ± 0.4
36 | TTTTTTAGTTTTTAGTGTACATAAATAAATAAATAA [XGTACX_site2843] | 8.46 ± 0.2
37 | CACCCATAAATATACACACGCACAACACAAAATAAA [CACACA_site2903] | 8.8 ± 0.49
38 | ATATATATATATACATGTACAAATGTATAACAAATG [XGTACX_site145] | 9.98 ± 0.35
39 | TTTTTTTACAACATTACACACAAATATTCTGTGTTA [CACACA_site5957] | 8.72 ± 0.44
40 | AACATTTTAAAACAGACACACACCAAAAAAAAAAAA [CACACA_site257] | 8.45 ± 0.55
41 | ATATTACAACATTTTATACACACGTGATTATTAATT [CACACA_site2877] | 8.78 ± 0.4
42 | AGAAAATTAAAAAGAACACACAAATATATATATAAT [CACACA_site5896] | 8.8 ± 0.49
43 | AACAAAAATAATAATCAAATAAATAAATGAAAACAT [CACACA_negctrl_site456] | 8.71 ± 0.26
44 | AATCGTGTTCTGAATACACACTAATACAAATTTGTA [CACACA_site6058] | 8.66 ± 0.44
45 | ATAAATTTATCCAAGTGTACAAAGCTAACATTTTTT [XGTACX_site4399] | 8.58 ± 0.33
